# PubChem BioAssay AID1745853 (National Center for Advancing Translational Sciences (NCATS), 2022)
# The other results are listed elsewhere or left out. Shown are side measurements of this screen, not its main read-out; they come without a call.
# Tests used:
# Test in all cases: Primary Screen for Target Class Profiling of Small Molecule Inhibitors of Methyltransferases
# [1] = target: Glycine N-methyltransferase (Homo sapiens) (UniProt Q14749); conditions: purified enzyme, MTase-Glo SAH luminescence; measured here: GNMT inhibition; at 40 µM; stronger effect = lower value
# How it was run: (§1)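 Each enzyme was reacted with SAM and its substrate, with compounds tested once at 40 uM; SAH formed was read by MTase-Glo luminescence.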
# [2] = target: Guanidinoacetate N-methyltransferase (Homo sapiens) (UniProt Q14353); conditions: purified enzyme, MTase-Glo SAH luminescence; measured here: GAMT inhibition; at 40 µM; stronger effect = lower value
# How it was run: as §1
# [3] = target: Histamine N-methyltransferase (Homo sapiens) (UniProt P50135); conditions: purified enzyme, MTase-Glo SAH luminescence; measured here: HNMT inhibition; at 40 µM; stronger effect = lower value
# How it was run: as §1
# [4] = target: Nicotinamide N-methyltransferase (Homo sapiens) (UniProt P40261); conditions: purified enzyme, MTase-Glo SAH luminescence; measured here: NNMT inhibition; at 40 µM; stronger effect = lower value
# How it was run: as §1
# [5] = target: Phenylethanolamine N-methyltransferase (Homo sapiens) (UniProt P11086); conditions: purified enzyme, MTase-Glo SAH luminescence; measured here: PNMT inhibition; at 40 µM; stronger effect = lower value
# How it was run: as §1
# % is scaled to controls: 0 for no effect and ±100 for the full control effect.
Structure (SMILES),"activity change, negative = inhibition [1]","activity change, negative = inhibition [2]","activity change, negative = inhibition [3]","activity change, negative = inhibition [4]","activity change, negative = inhibition [5]"
Cn1c(Cn2cccn2)nnc1C1CC(NC(=O)c2sccc2N)C1 (configuration not stated),-2.3%,-5.5%,-0.385%,-5.52%,-2.38%
Cc1ccc(C(=O)N2CC(CN3C(=O)c4c(c(C)nn4-c4ccccc4)C3C3CC3)C2)cc1 (configuration not stated),-7.27%,-10.3%,-5.73%,-19.8%,-8.67%
NC(=O)[C@@H]1CN(Cc2ccccn2)C[C@H]1COc1ccccc1,1.18%,3.43%,0.608%,-3.12%,13.9%
Cc1ccc(NC(=O)N2CC(n3cc(C(=O)NCc4ccncc4)nn3)C2)cc1C,-4.16%,-3.59%,-1.61%,-4.48%,-2.17%
Cc1ccc(Cl)cc1NC(=O)N1CCn2cccc2C1Cc1ccccc1 (configuration not stated),-9.97%,1.69%,-12.3%,-12.4%,-9.84%
CC(=O)N1CCC(c2nnc3n2C(C(=O)Nc2ccc(C)cc2)CC3)CC1 (configuration not stated),-7.49%,-5.16%,-6.07%,-11.4%,-9.2%
C=CCc1ccc(OC(C)Cc2ccc(OC)c(OC)c2)c(OC)c1 (configuration not stated),-8.03%,3.24%,8.04%,-13.8%,-10%
CCc1ccc(NC(=O)CN(C)S(=O)(=O)c2ccc3[nH]c4c(c3c2)CCCC4)cc1,-8.34%,-3.18%,-4.3%,-10.5%,-2.42%
CCOC(=O)c1cc2n(n1)CC(C)(C(=O)NC1CCCCCC1)N(c1ccc(CC)cc1)C2=O (configuration not stated),4.88%,0%,-0.708%,2.68%,5.47%
Cc1cccc(Cn2nc3n(CC(C)C)c(=O)c4ccccc4n3c2=O)c1,3.07%,0.878%,6.84%,-2.17%,3.8%
Cc1cc(C)cc(NC(=O)Cn2c(=O)oc3cc(S(=O)(=O)NCc4ccccc4)ccc32)c1,-5.06%,4.68%,-3.9%,1.67%,-4.79%
CCCn1c(=O)c2ccc(C(=O)NC(C)CC)cc2n2c(=O)n(CC(=O)Nc3ccc(C)c(F)c3)nc12 (configuration not stated),4.42%,2.26%,12.1%,0.919%,4.22%
O=C(NCCCCCNC(=O)c1cccnc1)c1cccnc1,-6.36%,-3.99%,-4.11%,-1.27%,-6.72%
NCC(=O)N1CCCC2(Cc3ccccc3CN2S(=O)(=O)c2ccccc2)C1 (configuration not stated),-3.55%,0.586%,-3.27%,-12.1%,-0.726%
CC(C)N(Cc1nccn1C)C(=O)c1cc(Cn2cnc3ccccc32)[nH]n1,-2.96%,-3.8%,-2.29%,-6.03%,-2.21%
COc1ccc(/C=C/C(=O)O[C@@H]2[C@@H](OC(C)=O)[C@@H](OC(C)=O)[C@H](O[C@H]3[C@@H]4C=CO[C@@H](O[C@@H]5O[C@H](CO)[C@@H](O)[C@H](O)[C@H]5O)[C@@H]4[C@@]4(CO)O[C@@H]34)O[C@H]2C)cc1O,-1.24%,5.36%,1.77%,-6.37%,4.03%
CCCn1c(=O)c2ccccc2n2c(SCC(=O)Nc3ccc(C)c(C)c3)nnc12,3.86%,4.16%,10.7%,5.07%,4.58%
CNC(=O)[C@@H]1CN(C(=O)c2ccc(OC)nc2OC)C[C@H]1c1n[nH]c(C)n1,-0.829%,-0.164%,-0.135%,-5.84%,13.7%
O=C1NCCCCCN(C(=O)Cc2cccc(F)c2)[C@H]2CCC[C@@H]12,-1.37%,-0.447%,0.114%,-5.08%,-1.27%
CCNc1nc2c(s1)C(c1cccc(F)c1)CC(=O)N2 (configuration not stated),-83.1%,-71.4%,-21.4%,-47.8%,-41.9%
COc1ccccc1N1CCN(CC[C@@](C)(C(=O)C2CCCCC2)c2ccccc2)CC1,-3.29%,-9.64%,0.459%,-28.5%,-9.43%
CCCCNC(=O)c1nnn2cc(-c3ccc(Cl)cc3)[nH]c(=O)c12,-13.8%,0.817%,-2.77%,-4.16%,12.2%
CC(C)CC(=O)Nc1ccnn1C1CCN(C(=O)c2scc3c2CCCC3)CC1,0.286%,3.18%,1.67%,-3.64%,14.7%
CCCCNC(=O)c1cc2n(n1)CC(C)(C(=O)NC1CCCC1)N(CCC)C2=O (configuration not stated),-2.86%,2.27%,-4.25%,-4.66%,-3.08%
CCCn1c(=O)c2cc(Cl)ccc2n2c(SCC(=O)Nc3cccc(F)c3)nnc12,3.37%,0.352%,11.9%,6.63%,9.06%
CC(C)(C)CCN1C[C@@H]2C(CNC(=O)c3cc(Cl)cc(Cl)c3)[C@@H]2C1 (some centres not stated),6.24%,14%,-7.27%,-22.6%,0.869%
O=[N+]([O-])c1cn2c(n1)OCC(OCc1ccc(OC(F)(F)F)cc1)C2 (configuration not stated),0.001%,–,-1.01%,–,–
O=C(c1ccc2cc[nH]c2c1)N1CCCC(Cc2noc(-c3ccccn3)n2)C1 (configuration not stated),-8.06%,-12.3%,-6.09%,-14.9%,-10.9%
CC1CCCCC1NC(=O)C1c2cccn2CC(=O)N1CCc1ccc(Cl)cc1 (configuration not stated),0.355%,1.05%,4.88%,2.54%,1.78%
COC(=O)c1cc(CN2CCN(C(=N)N)CC2)cc(C(=O)N2CCN(C(=O)c3ccc(C(=N)N)cc3)CC2)c1,5.64%,5.56%,-44.5%,-3.78%,6.51%
